This is one part of the list. No stated cut-off is given here; in the data, active = 3.2 or more and inactive = the rest. Most of these values are background signal.
Molecular target: SHP2 C-SH2 domain E139D
Assay: enrichment score (SH2-bound / input frequency) (ratio); bacterial display of known human phosphotyrosine sites (pTyr-Var adds point mutants) read by sequencing; higher = stronger binding; tyrosines were phosphorylated by kinases first
Details: peptide library: pTyr-Var
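Further: displayed peptides selected on beads carrying the immobilized SH2 domain, with library peptides lacking any tyrosine serving as negative controls.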

Enrichment score, inactive:
AGQEDCDRLRP [CDC42_Y64_Y64C] 0.684
YRNKPYISWPS [CDC42BPB_Y1638_S1633Y] 3
FGDTSYIPFRD [CDC14C_Y132_P131S] 0.66
EKQARYEIVVE [CDH5_Y223] 0.772
ENELTYYCCKK [CD59_Y86] 0.725
RWHEGYRQTPR [CD44_Y412_K417R] 2.72
RNDRVYQPLRD [CD3D_Y149_Q147R] 0.478
RWHEGYRQTPK [CD44_Y412] 2.33
RDHFGYRQSVT [CD55_Y245_YF] 0.952
AAFNKYDQERF [CDC73_Y293_R292K_YF] 0.678
DIPIRYSIMGV [CDH4_Y205_T208M] 0.875
NGTVTYAIIAG [CDH23_Y1672_V1675I] 1.76
SLQFEYVHYGG [CDC14A_Y591_S589F] 0.757
SLQFEYVHFGG [CDC14A_Y591_S589F_YF] 1.74
RQRTAYFSLNT [CDH1_Y68_D72N] 1.15
KQQEIYQEVTQ [CD209_Y239_L242V] 0.71
GEHSIYCTVNN [CD55_Y266] 1.09
KQQEIYQELTQ [CD209_Y239] 0.896

Enrichment score, active:
FRNKPYISWPS [CDC42BPB_Y1638_S1633Y_YF] 3.56

Molecular target: SHP2 C-SH2 domain wild-type
Assay: as above
Details: peptide library: pTyr-Var

Enrichment score, inactive:
AGQEDCDRLRP [CDC42_Y64_Y64C] 0.767
YRNKPYISWPS [CDC42BPB_Y1638_S1633Y] 2.64
FGDTSYIPFRD [CDC14C_Y132_P131S] 0.675
EKQARYEIVVE [CDH5_Y223] 0.849
ENELTYYCCKK [CD59_Y86] 0.528
RWHEGYRQTPR [CD44_Y412_K417R] 1.89
RNDRVYQPLRD [CD3D_Y149_Q147R] 0.546
RWHEGYRQTPK [CD44_Y412] 1.67
RDHFGYRQSVT [CD55_Y245_YF] 0.855
AAFNKYDQERF [CDC73_Y293_R292K_YF] 0.608
DIPIRYSIMGV [CDH4_Y205_T208M] 1.1
NGTVTYAIIAG [CDH23_Y1672_V1675I] 2.91
FRNKPYISWPS [CDC42BPB_Y1638_S1633Y_YF] 2.74
SLQFEYVHYGG [CDC14A_Y591_S589F] 0.613
SLQFEYVHFGG [CDC14A_Y591_S589F_YF] 1.5
RQRTAYFSLNT [CDH1_Y68_D72N] 2.51
KQQEIYQEVTQ [CD209_Y239_L242V] 0.599
GEHSIYCTVNN [CD55_Y266] 1.05
KQQEIYQELTQ [CD209_Y239] 1.1

Molecular target: SHP2 N-SH2 domain L43F
Assay: as above
Details: peptide library: pTyr-Var

Enrichment score, active:
FRNKPYISWPS [CDC42BPB_Y1638_S1633Y_YF] 3.8

Enrichment score, inactive:
AGQEDCDRLRP [CDC42_Y64_Y64C] 0.504
YRNKPYISWPS [CDC42BPB_Y1638_S1633Y] 2.81
FGDTSYIPFRD [CDC14C_Y132_P131S] 0.644
EKQARYEIVVE [CDH5_Y223] 0.645
ENELTYYCCKK [CD59_Y86] 0.574
RWHEGYRQTPR [CD44_Y412_K417R] 2.27
RNDRVYQPLRD [CD3D_Y149_Q147R] 0.593
RWHEGYRQTPK [CD44_Y412] 2.47
RDHFGYRQSVT [CD55_Y245_YF] 0.925
AAFNKYDQERF [CDC73_Y293_R292K_YF] 0.49
DIPIRYSIMGV [CDH4_Y205_T208M] 0.907
NGTVTYAIIAG [CDH23_Y1672_V1675I] 1.23
SLQFEYVHYGG [CDC14A_Y591_S589F] 0.66
SLQFEYVHFGG [CDC14A_Y591_S589F_YF] 1.58
RQRTAYFSLNT [CDH1_Y68_D72N] 0.851
KQQEIYQEVTQ [CD209_Y239_L242V] 0.725
GEHSIYCTVNN [CD55_Y266] 0.705
KQQEIYQELTQ [CD209_Y239] 0.999

Molecular target: SHP2 N-SH2 domain T42A
Assay: as above
Details: peptide library: pTyr-Var

Enrichment score, active:
FRNKPYISWPS [CDC42BPB_Y1638_S1633Y_YF] 3.29

Enrichment score, inactive:
AGQEDCDRLRP [CDC42_Y64_Y64C] 0.519
YRNKPYISWPS [CDC42BPB_Y1638_S1633Y] 2.32
FGDTSYIPFRD [CDC14C_Y132_P131S] 0.552
EKQARYEIVVE [CDH5_Y223] 0.682
ENELTYYCCKK [CD59_Y86] 0.503
RWHEGYRQTPR [CD44_Y412_K417R] 2.43
RNDRVYQPLRD [CD3D_Y149_Q147R] 0.494
RWHEGYRQTPK [CD44_Y412] 1.94
RDHFGYRQSVT [CD55_Y245_YF] 0.779
AAFNKYDQERF [CDC73_Y293_R292K_YF] 0.68
DIPIRYSIMGV [CDH4_Y205_T208M] 2.44
NGTVTYAIIAG [CDH23_Y1672_V1675I] 3.07
SLQFEYVHYGG [CDC14A_Y591_S589F] 0.629
SLQFEYVHFGG [CDC14A_Y591_S589F_YF] 1.55
RQRTAYFSLNT [CDH1_Y68_D72N] 0.859
KQQEIYQEVTQ [CD209_Y239_L242V] 0.624
GEHSIYCTVNN [CD55_Y266] 0.744
KQQEIYQELTQ [CD209_Y239] 0.778

Molecular target: SHP2 N-SH2 domain T52S
Assay: as above
Details: peptide library: pTyr-Var

Enrichment score, active:
FRNKPYISWPS [CDC42BPB_Y1638_S1633Y_YF] 3.33

Enrichment score, inactive:
AGQEDCDRLRP [CDC42_Y64_Y64C] 0.564
YRNKPYISWPS [CDC42BPB_Y1638_S1633Y] 3.05
FGDTSYIPFRD [CDC14C_Y132_P131S] 0.628
EKQARYEIVVE [CDH5_Y223] 0.951
ENELTYYCCKK [CD59_Y86] 0.58
RWHEGYRQTPR [CD44_Y412_K417R] 2.41
RNDRVYQPLRD [CD3D_Y149_Q147R] 0.728
RWHEGYRQTPK [CD44_Y412] 2.21
RDHFGYRQSVT [CD55_Y245_YF] 0.794
AAFNKYDQERF [CDC73_Y293_R292K_YF] 0.433
DIPIRYSIMGV [CDH4_Y205_T208M] 1.24
NGTVTYAIIAG [CDH23_Y1672_V1675I] 1.14
SLQFEYVHYGG [CDC14A_Y591_S589F] 0.525
SLQFEYVHFGG [CDC14A_Y591_S589F_YF] 1.99
RQRTAYFSLNT [CDH1_Y68_D72N] 0.673
KQQEIYQEVTQ [CD209_Y239_L242V] 0.787
GEHSIYCTVNN [CD55_Y266] 0.736
KQQEIYQELTQ [CD209_Y239] 0.872

Molecular target: SHP2 N-SH2 domain wild-type
Assay: as above
Details: peptide library: pTyr-Var

Enrichment score, inactive:
AGQEDCDRLRP [CDC42_Y64_Y64C] 0.585
YRNKPYISWPS [CDC42BPB_Y1638_S1633Y] 2.54
FGDTSYIPFRD [CDC14C_Y132_P131S] 0.731
EKQARYEIVVE [CDH5_Y223] 0.793
ENELTYYCCKK [CD59_Y86] 0.529
RWHEGYRQTPR [CD44_Y412_K417R] 2.13
RNDRVYQPLRD [CD3D_Y149_Q147R] 0.575
RWHEGYRQTPK [CD44_Y412] 1.75
RDHFGYRQSVT [CD55_Y245_YF] 1
AAFNKYDQERF [CDC73_Y293_R292K_YF] 0.598
DIPIRYSIMGV [CDH4_Y205_T208M] 0.735
NGTVTYAIIAG [CDH23_Y1672_V1675I] 1.09
FRNKPYISWPS [CDC42BPB_Y1638_S1633Y_YF] 2.82
SLQFEYVHYGG [CDC14A_Y591_S589F] 0.563
SLQFEYVHFGG [CDC14A_Y591_S589F_YF] 1.5
RQRTAYFSLNT [CDH1_Y68_D72N] 0.605
KQQEIYQEVTQ [CD209_Y239_L242V] 0.795
GEHSIYCTVNN [CD55_Y266] 1.14
KQQEIYQELTQ [CD209_Y239] 1.04
